Assay results reported in PubChem BioAssay AID2147 (National Center for Advancing Translational Sciences (NCATS), 2009).
Among all 230,000 compounds or so, about 3,600 (1.6%) were called active. Inconclusive means that the source gave no clear call. Such entries were picked first, then a sample of the others. Calls follow the shape of the dose curve; as a rule, active = well fitted inhibition curve with a large enough effect (not every such curve was filed as active); inconclusive = small, poorly fitted or top-dose-only effect, or another doubt; inactive = no such curve, though single readings can be large or run the other way. A potency beside an inconclusive call is a rough fit, not a confirmed value.
Also: nearly all actives have a fitted effect of over 50% in size.
Potency is read from the fitted curve at half-maximal effect; tags tell the direction and shape of the fitted curve.

What follows are compounds tested against Lysine-specific demethylase 4E (Homo sapiens) (UniProt B2RXH2) (assay: qHTS Assay for Inhibitors of Human Jumonji Domain Containing 2E (JMJD2E)). Conditions: JMJD2E catalytic domain, FDH-coupled NADH fluorescence (FDH is formaldehyde dehydrogenase); series mostly up to 57.1 µM.
Sequence of UniProt B2RXH2 (B2RXH2 whole entry, looked up, the tested form may be a part): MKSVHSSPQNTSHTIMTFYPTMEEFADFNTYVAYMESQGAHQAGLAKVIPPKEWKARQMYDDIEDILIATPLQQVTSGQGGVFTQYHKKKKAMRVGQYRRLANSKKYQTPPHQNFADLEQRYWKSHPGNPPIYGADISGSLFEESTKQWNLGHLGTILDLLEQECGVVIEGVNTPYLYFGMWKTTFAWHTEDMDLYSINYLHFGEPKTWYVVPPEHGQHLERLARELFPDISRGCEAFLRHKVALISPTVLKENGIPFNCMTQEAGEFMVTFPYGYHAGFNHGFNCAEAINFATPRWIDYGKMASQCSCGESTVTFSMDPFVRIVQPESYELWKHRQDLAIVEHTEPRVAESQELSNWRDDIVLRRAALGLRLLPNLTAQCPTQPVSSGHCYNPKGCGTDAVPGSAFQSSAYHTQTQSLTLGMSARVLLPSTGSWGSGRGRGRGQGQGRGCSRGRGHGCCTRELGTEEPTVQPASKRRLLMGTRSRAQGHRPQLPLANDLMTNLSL
`Cc1cc(C)c(NC(=O)C2CSCCS2)c(C)c1` (configuration not stated) was tested, and the Potency was “inactive”. In the case of `Cc1noc(NS(=O)(=O)c2ccc(NC(=O)CSc3nc4ccccc4[nH]3)cc2)c1C`, the Potency is reported as “inactive”. In the case of `CCCn1nc2cc(C(=O)NC3CCc4ccccc43)ccc2c1OCC` (configuration not stated), the Potency is reported as inconclusive: 25.1 µM [inhibitor, partial curve]. For `CC1(C)OC(C)(C)/C(=C/Nc2ccc(O)cc2)C1=O`, the Potency was inconclusive: 35.5 µM [inhibitor, single point]. With `COc1cc2cc(C(c3nnnn3C3CCCC3)N(C)C3CCCCC3)c(=O)[nH]c2cc1OC` (configuration not stated) the Potency was inconclusive: 35.5 µM [inhibitor, partial curve]. `CC(Nc1nc(N2CCCC2)nc2ccccc12)c1ccccc1` (configuration not stated) was tested, and the Potency was inconclusive: 25.1 µM [inhibitor, single point]. `CCOC(=O)c1c(CN2CCCCC2)n(C)c2ccc(OC)c(S(=O)(=O)c3ccccc3)c12` was tested, and the Potency was inconclusive: 39.8 µM [inhibitor, single point]. With `Cc1cc([N+](=O)[O-])ccc1NC(=S)NC(=O)Cc1ccccc1` the Potency was “inactive”. For `C=CCSCC(N)C(=O)O` (configuration not stated), the Potency was inconclusive: 28.2 µM [inhibitor, single point]. In the case of `CCC(=O)c1cc2c(C)cc(=O)oc2c(C)c1O`, the Potency is reported as inconclusive: 22.4 µM [inhibitor, partial curve]. For `CCc1cc(=O)oc2cc(OCC(N)=O)c(Cl)cc12`, the Potency was inconclusive: 28.2 µM [inhibitor, partial curve]. With `O=C(O)c1cc(-c2ccc(/C=C3/SC(=S)N(Cc4ccccc4)C3=O)o2)ccc1Cl` the Potency was “inactive”. For `Fc1ccc(-c2cc(C(F)(F)F)nc(N3CCCCC3)n2)cc1`, the Potency was inconclusive: 20 µM [inhibitor, partial curve]. With `O=C(CCc1ccccc1)Nc1nnc(-c2ccc3c(c2)OCCO3)o1` the Potency was inconclusive: 14.1 µM [inhibitor, partial curve]. For `CCOC(=O)c1cc(=O)[nH]c2ccccc12`, the Potency was inconclusive: 28.2 µM [inhibitor, partial curve]. In the case of `COc1ccc(C2Nc3ccccc3C(=O)N2Cc2ccco2)cc1COc1ccccc1F` (configuration not stated), the Potency is reported as inconclusive: 31.6 µM [inhibitor, partial curve]. `O=C(CCCCCNC(=O)c1ccccc1)N/N=C/c1ccco1` was tested, and the Potency was “inactive”. `CC(C)c1cccc2nc3c(c(C(C)(C)C)c12)Cn1c-3cccc1=O` was tested, and the Potency was inconclusive: 28.2 µM [inhibitor, partial curve]. For `COC(=O)c1ccc(N2CCN(CC(=O)c3ccc(-c4ccccc4)cc3)CC2)c([N+](=O)[O-])c1`, the Potency was inconclusive: 28.2 µM [inhibitor, partial curve]. In the case of `C#CCOCCOCCOCCNc1nc(N2CCN(C(=O)Cn3cc(CCCCN)nn3)CC2)nc(N2CCN(C(=O)Cn3cc(CC(C)O)nn3)CC2)n1` (configuration not stated), the Potency is reported as inconclusive: 39.8 µM [inhibitor, single point]. In the case of `CC(=O)c1ccc(NC(=O)Nc2ccc([N+](=O)[O-])cc2)cc1`, the Potency is reported as “inactive”. In the case of `CSc1nncn1/N=C/c1ccc2c(c1)OCO2`, the Potency is reported as inconclusive: 25.1 µM [inhibitor, single point]. `O=C(N/N=C/C=C/c1ccc2c(c1)OCO2)C(O)c1ccccc1` (configuration not stated) was tested, and the Potency was inconclusive: 35.5 µM [inhibitor, single point]. `COC(=O)c1ccccc1NC(=O)CSc1nc(-c2ccco2)cc(C(F)(F)F)n1` was tested, and the Potency was inconclusive: 39.8 µM [inhibitor, single point]. For `O=C1CC(/C=C/c2ccco2)=Nc2ccccc2N1`, the Potency was inconclusive: 28.2 µM [inhibitor, single point]. `CCOc1cc(C(=O)N2CCN(c3ccc(C(C)=O)cc3)CC2)cc(OCC)c1OCC` was tested, and the Potency was inconclusive: 39.8 µM [inhibitor, single point]. With `CC(C)(C)NCc1cc2ccccc2[nH]c1=O` the Potency was inconclusive: 39.8 µM [inhibitor, single point]. `COc1ccc(/C=N/n2c(SC)nnc(C(C)(C)C)c2=O)cc1OC` was tested, and the Potency was inconclusive: 35.5 µM [inhibitor, single point]. In the case of `Cn1c(=O)n(C)c2cc(C(N)=O)ccc21`, the Potency is reported as inconclusive: 25.1 µM [inhibitor, partial curve]. With `CCN(CC)C(=O)c1sc(NC(=O)c2cc(-c3ccc(C)s3)nc3ccccc23)c(C(=O)OC)c1C` the Potency was inconclusive: 28.2 µM [inhibitor, partial curve]. In the case of `Cc1ccc(C2CC(c3ccccc3)=NN2C(=S)Nc2ccccc2)o1` (configuration not stated), the Potency is reported as “inactive”. In the case of `CC1(C)CN(c2cccc(-c3ccnc4ncnn34)c2)C1=O`, the Potency is reported as inconclusive: 25.1 µM [inhibitor, partial curve]. In the case of `COc1cccc(/C=N/NC(=O)CN2CC(c3ccccc3)CC2=O)c1O` (configuration not stated), the Potency is reported as inconclusive: 12.6 µM [inhibitor, partial curve]. `C=CC1=C2C=C(C3CC3)N(CCCCO)C=C2C(=O)C(C)(OC(=O)c2ccco2)C1=O` (configuration not stated) was tested, and the Potency was inconclusive: 3.55 µM [inhibitor, single point]. With `CCOC(=O)c1cn2nc(-c3ccc(OC)cc3)cc2nc1C1CCN(C(=O)OC(C)(C)C)CC1` the Potency was inconclusive: 4.47 µM [inhibitor, single point]. `Cc1ccc2nc(-c3cccnc3SCC(=O)N3c4ccccc4CC3C)[nH]c2c1` (configuration not stated) was tested, and the Potency was inconclusive: 31.6 µM [inhibitor, partial curve]. With `COc1ccc(N2CCN(C(C)C(=O)N3CCCC3)CC2)cc1` (configuration not stated) the Potency was inconclusive: 31.6 µM [inhibitor, partial curve, poor fit]. For `Cc1ccccc1OCC1Cc2c(nc(N)c(C#N)c2N)O1` (configuration not stated), the Potency was inconclusive: 22.4 µM [inhibitor, partial curve]. With `O=C(N/N=C/c1c(-c2ccccc2)[nH]c2ccccc12)c1cccnc1` the Potency was “inactive”. `O=C(CSc1nnc2ccccn12)NCCc1ccc(F)cc1` was tested, and the Potency was inconclusive: 31.6 µM [inhibitor, partial curve]. For `COc1cc(NC(=O)c2cc(Br)cc(C)c2OC)ccc1NC(=O)C(C)C`, the Potency was inconclusive: 39.8 µM [inhibitor, single point]. In the case of `Cc1cc(C)n(-c2nc(C)nc3sc4c(c23)CCC(C)C4)n1` (configuration not stated), the Potency is reported as inconclusive: 35.5 µM [inhibitor, partial curve].
